According to the supplement of paper PMC10681739:
Whole data set: some 2,700 sequences, median “arbitrary fluorescence units” near 4,100, cut for the highest 2% near 54,000. The list shows a part of the results.

target: T1, ETS1 (UniProt P14921); experiment: ETS1 binding intensity (PBM fluorescence) (arbitrary fluorescence units); higher = stronger binding; settings: ETS1 concentration 10 nM
T1 sequence: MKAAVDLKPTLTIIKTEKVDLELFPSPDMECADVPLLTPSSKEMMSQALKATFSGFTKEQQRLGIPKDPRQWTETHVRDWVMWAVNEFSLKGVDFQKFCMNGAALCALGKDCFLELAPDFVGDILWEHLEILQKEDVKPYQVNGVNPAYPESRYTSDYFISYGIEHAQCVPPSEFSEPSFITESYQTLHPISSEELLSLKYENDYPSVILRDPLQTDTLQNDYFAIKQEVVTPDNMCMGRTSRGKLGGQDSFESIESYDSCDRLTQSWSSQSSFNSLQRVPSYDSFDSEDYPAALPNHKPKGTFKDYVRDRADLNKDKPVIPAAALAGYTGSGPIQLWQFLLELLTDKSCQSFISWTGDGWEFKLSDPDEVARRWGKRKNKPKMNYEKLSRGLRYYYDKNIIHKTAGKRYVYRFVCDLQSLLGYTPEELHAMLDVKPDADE
Method: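 gcPBM on wild-type 36-bp genomic probes with two neighbouring ETS1 sites (4-24 bp apart). Recombinant human ETS1 (10 nM) was detected with anti-ETS1 antibody fluorescence. Values are medians over 3 replicate spots. The probes sit in constant array flanks that are not printed.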

Sequence	ETS1 binding intensity
TGAGCGCCGTGCCTTCCGGGTTCCGCCCTCCTGGGT	1430
ACAGCTTCCGGTTTTGCAAGACAATGCTTCCTTCTC	87800
TTACTCACCGGATGTCTGCCCTGCGGATACATGGCA	15600
GGGAGTGAGGGGGAAACGGCAGGATGAAGTTCGCCG	283
ATCTGTTTCCTAAACAAATGGCTACAGGATATGATT	446
AGGGGCGGGGCATCCGTCGCCGGAAGCCTGTACCGT	2810
ACACTTTCTGACTTCCTGTCTTCCTGAAACAATTAC	30600
CTCAACTTCCGGAGGCGGCAGACTTTTTCCGTCAAG	36700
GTCCCCGGAAGCGCCCTGAGAGCCACTTCCGGGCCG	10400
ACACCAGGATGAGGTTAGACCACTGTTTCCTGTAAA	704
CCGGCCAATGCATTTCCTCTTCCGTCCATGTAATTC	8260
GGGTCCGGAAGCACCATGGACCCCCGGGGAAACGCG	4070
GACCCAGGAAGCACCCGGGCCGTGGCTTCCTGTGAA	2090
TATTCAAAGCCCACTTCCTTCCTGTAGCATTCATTC	6220
TGCAGGATGTATTGGTACAGGCAGCTACGGAAAATA	402
TCTCCCTTTCCTGTTGATCATTTCTCTTCCTGTGTT	8220
ACGTTTTCCTGACATTTAAAAATGTCATTTCCTGTG	7200
AGTAGTTTCCTGCTTTAGTCTAGCCACATCCTCAGC	21500
AGTGTTCCAGGAAGCAGAGGACAGGAAGCATTCTGT	1740
TAAAAACTACGTTTCCCAGCTTCCTTTGCAGTGAGG	230
ATGCAGAAAGTGGGAAGTGAGGAAATGAGGGCAGCG	232
GATAACATTTCCCCAGAGATCACAGGAAGCTGCGCA	566
GAATGCTCATCCTGCTGCTTTCTGTTTCCTGCCTGG	4710
CATCATTATTTCTTCCGCTGGGAAGTGTCTGCTGAG	1060
GCAAACATCCTGTCATAAAAAGACAAGGATGTTGCA	39900

Sequence	ETS1 binding intensity
TCTACGGAAGTGCGCCGCAGTCCGCCAGTTCCGGCC	3130
AATGCCTCTTCCTGTTGAGGCCACTTCCCTTCTAGG	17900
GGGCGCAAGGAAGCCGGGGTCCTTTTCCGCTGCGCC	340
CACAGAATTATTTCCTTAGCCAGGATGCAGCTTCAG	741
AGAACAGGAAACACTGTTGAGGGGACGGAAAGAGCA	6190
TTCTTGGCCACATCCGTCTCCCGGAACTGCTCCTTC	8980
AGGCCATTTCCGTCGGGTCAGCGATTTCCGCCTTCG	18500
GCACCTGCCGTTTCCTGCCCCAGGATGGTGTCCCCA	23200
TCAAGGCCACTTCCTGTGTGACCTTCCTGCTCCTGG	38700
GCTGCAGCCAACAGGATGGGGGAAATGATATCTCGT	538
GTTTACGTAGGGAGGAAGCAGGATGTATAAAGCCCA	893
ATCTCACCTTCCTGGTGTCTGGGCTTCCGCAGCTTC	662
GTCACTTCCGGCAGCCGGAGGCAGCAGAGGAAGCCG	71500
CTGAGCCACAGGAAACTCAAGCTTCCTTGTAACACT	1560
TGCAACATCCTTTGAAATCTAGAAAGAGGAAGTAAT	7480
GCCTGGGAGGATGTCGCTAGGAGAGGAAGCCCAGCC	863
GCAAAACCCCAGCATCCTGTTTCCTCTGCTGACCCA	15700
TGTGCTTCCTCTCTTTGGGAAGGCACAGGATGCCAC	7810
TGCAAGCTCTCACTTCCCCTTCCTGTACAGGGCAGG	4240
TGAAAGAAACTTCCCACAGGCAGGAAGTTCAGGGAC	2470
TTGCCGGAAACGTAAAAGACAGGGACCGGAACTGAA	6470
GCGCAGCAGCAGGAAGTGGGAGGAAATGCATCTGCT	7930
CCACAGGAAATTGGTGGGCTAGAGCACAGGAAAAAG	5150
GGCAGGAAGTGAATGAAGACAAACACAAGGAAATAA	6160
TGACCGTTTGGCGGATGCGCAGGAAGCGGCCGCGCT	1510

Sequence	ETS1 binding intensity
CCAGCCGACTTCCGGGGTGGGGCTTCCTGCCGCAGA	44500
TGGGGTTTCCTGGGGTGTTCTGTCTACATCCTGAGA	5150
CGGACTTCCGGGGTCAAAAAGCACGACCTTCCGGGA	51600
GCTTCAAACATCCTTGAAAAACAGGATGTCTCTTAA	3280
GGTAAGACACAGGAAAACGTGCTTCCGGTTCTCGGC	16500
TGTGCCTTGGCTTCCTTCGCCAGGAAATGCGAGTGA	796
TGTGTTTCCTGAGGCCTTTCAGCCATGCTTCCTGTA	5030
AAAGTTCAGGAAACTAGTTCTTCAGGATGTGGGCAG	329
GCCCGTCGGAGACTTCCGCTTCCGGGGCCGCCGCCA	44100
GCAGAAGCAGGAAGAGAGCTGGCCGGAAGACACTTA	2260
TGAATCATTTCCGCCTGCCCTTGCTTTCCGCCTTCT	23700
AATGCTTCCCGGTATTTAACATTTCACTTCCTGACA	2770
ATGAAGAAGGAAGTGGGTTAGCTCAGGAAATGAATA	1290
TGGCTGCATCCTGAACGGCGCCTCCCGGAACCCGGC	2530
GCCCGGCTTCCGGGGCTGCCCTGCCTTCCGCAGCGT	17700
GACGGCGCGGCTGCGGAACTTCCGGTCCGTGCTCGT	41700
GAGCACGACTTCCGGCCTGAAAAGGAAGTCTCCTCC	89000
TGTTATTGGACAACTTCCAGGAAAACATCCTCAAGA	273
CTTCACATCCTCTCGAGCACCTGTTGTTTCCTGACT	11100
GCCCGCCGGGAGCGGAAGCGGAAGCGGCGAGTCTCC	7840
GATGCAAAAAGCATCCGCCCCGGAACCGGTTACCAG	3630
GGGCGCTCCCGGGCTTCCTTCCTGCTCCCCTGGGTC	2060
CAGGGCACACTTCCTCTCTCTCAGGATGCCCACAGA	12900
TGGTGAAGGATGTAAGTGACCTAAAGGAAGTGCATA	264
GGGGGTATCCGCCTCTCGGGTAAGTCCGGAATCGGC	2010

Sequence	ETS1 binding intensity
GTTTGAGTGCAGGAAAAGACAGGATGTGGTTACATA	2010
ATTTTGTAACCTTCCGCTCAGTTTCCGGTAACCGCC	9850
AAGTCAGGGGAATTTCCTGAGGAAATGGAGCCCTAG	1590
CACCACATCCTCTCTAGTACCTGTTGTTTCCTGACT	12500
CAGATTGCTCATTTCCCTCAGGAAATTTCATTCAGG	468
TCCCACGCTCCGGAAACCATTATTCCGCTTCATCCT	2380
AAAAAAGGAAGTGGTATTTTTTGTATTTCCTGCTTT	7320
ACTAGCGAGGCGGAAGTAAGGCGGAAGTACTGCCCT	8320
GGAGGGAAAAACAGGAAGCGGAAAGGCTGCGAACGC	5220
GCTTCGGAAGAGGCAGCAGGGCCTGGCCTTCCTGTC	202
CGCCGGAAGTGGTCGCGGGTCGTTCTGCTTCCTGCC	18000
GACAAGCCACATCCCTGTCACACATCCTGCGAAGGG	1900
GACCAGATAAAGGAAGTGCTGCTTCCTATGCCTGAG	3820
GCGCGGCTTCCGCGTGATGGACGCCCGGAAGCCGGC	3850
GCCCATCAGGAAACTCTTACAGTCAGGAAACTTAAG	274
GTGGACGCCACAGGAAAGAGAGGAAGCGCCTGAGAG	319
AGCGCAGCTTCCTCCGCCCACCACGGAAGTGAGGCG	3090
GCCTAGCACAACCGGAAAAGGAAGTGCCTCCGGCGC	7780
ACCCCCTTCCTGAAGGGGGCGATCTGCTTCCTGCTG	2970
GCTGCCGGAAGTCGCTCGACTTCTACTTCCGGTCCG	32600
CATGGCATCCTGGAGGTTGCGTTCTACTTCCTTGGA	2810
GGCACAGGATGTCGTCCCTCTCTGTGAGGAAGCCAC	5580
AGCCACTTCCTCCAGCGTGAGCAGCACTTCCTCCTG	17200
AATCACTTCCTCTCCAAGGGCTGCTGCTTCCTCTCC	26000
AGGGGTCCCCGGAACCCAGGCCCTTCCGGTCCGGCA	7320

Sequence	ETS1 binding intensity
TCAATTTCCGCTCACTGCAACCTTCACTTCCTGGGT	33300
AGAATGAGCTGCAGGAAGGCGGAAGCACTAGCGTGC	421
ATCAGCTGTTTCCTTTCACCTCCAGGAAGAGATAAC	2590
TAAGACCCATTTCCTGCCCTCTGGGAAGTCACAGAC	24100
CGAAAGGAAACGGACTAGGTTCTGAAACTTCCTGTT	2840
GTCTCGCTGGCTCAGGAAGGAAGCTGCAGACTTTCG	177
GTGGGGCCTCAATTTCCTTTTCCTGTTCAGGGCGTG	6940
CCCTACAGGAAGGGGCCTCTGCTACTTCCTAGACCG	2750
AGCGGGACTTCCCACTGAGACGAGCGGATGTCATAT	1330
GCCAGTGATCCTGTTTGAGCCTCTCAGGAAGCATTG	181
GGGCCAGGAAGCCCAGGCAGCCTCACTTCCTCTCTC	1740
TTCTCTGCCTTTCCTGCTTGGCTTCCTGATGGCTGC	1730
TCCCTTCCTCTCTCTCTCACACACACACTTCCTCTC	5900
TAAGTTTCCTGAGGCCTCTCCAGAAGAGGAAGCCCC	4420
TACTTTCCATTCCATCCACAGGATGCTTCCTGTGTA	1250
GGCCAACAGGAAGCAGGTGCTCACATCCTGAAGCAC	5370
AGGCAGGAAATGGCTGTGGCTGAGGCAGGATGCATT	6180
GCTTTGGTTTCCTCATATACAAACCGGATGAGATGG	1870
ACCCCACAGGAAGGCCCAGGCGCCGGGAAACAGTCT	351
AGCCATGGAGTTTCCTTTGAAGGAAATCAACATTTG	826
TTAACGGGAAGCTCTTTGCATTTGCATTTCCTCAAC	301
TGGCACAGGAAAGGGTCACAGAACACGGATATCTCA	608
TCAGAATGTGCACAGGAAGGAAGCTCTGACTAAGCT	528
CTTCACTTTATCCTGTTGGGACCAGGAAACAAAGTA	562
CTCCCCGGGAAATGTTTGTCACCACTTCCTGCCACA	5260
